Experimental data reported in the antibiotic and cytotoxicity screens of Wong et al. (2023).
Some of the results follow.

How the values were obtained:
HSkMC = human skeletal muscle cells; assay: cytotoxicity call (relative viability < 0.9); conditions: 10 µM
HepG2 = assay: cytotoxicity call (relative viability < 0.9); conditions: 10 µM
S. aureus RN4220 = assay: growth inhibition call (relative growth <= 0.2); conditions: 50 µM

SMILES	cytotoxicity call (HSkMC)	cytotoxicity call (HepG2)	growth inhibition call (S. aureus RN4220)
C[C@H](CO)N1C[C@H](C)[C@@H](CN(C)S(=O)(=O)c2ccc(-c3ccccc3)cc2)OCc2cn(nn2)CCCC1=O	inactive	inactive	inactive
CO[C@@H]1CN(C)C(=O)c2cc(NS(=O)(=O)c3cn(C)cn3)ccc2OC[C@H](C)N(CCC(F)(F)F)C[C@H]1C	inactive	inactive	inactive
C[C@H](CO)N1C[C@H](C)[C@H](CN(C)Cc2ccccc2)OCCCC[C@H](C)Oc2ccc(NS(=O)(=O)c3cccs3)cc2C1=O	inactive	inactive	inactive
COc1ccc(S(=O)(=O)Nc2ccc3c(c2)CC(=O)N([C@@H](C)CO)C[C@@H](C)[C@H](CN(C)S(C)(=O)=O)O3)cc1	inactive	inactive	inactive
CO[C@H](CN(C)S(=O)(=O)c1cccc(Cl)c1)[C@@H](C)CN([C@H](C)CO)S(=O)(=O)c1ccc(Cl)cc1	inactive	inactive	inactive
CCCCCN1CC=C[C@@]23O[C@@H]4C=CCOC(=O)[C@@H]4[C@H]2C(=O)N(CCO)[C@@H]3C1=O	inactive	inactive	inactive
Cc1ccc(S(=O)(=O)Nc2ccc3c(c2)C(=O)N([C@H](C)CO)C[C@H](C)[C@H](CN(C)Cc2ccccc2)OCCCC[C@H](C)O3)cc1	inactive	inactive	inactive
CCC(=O)NCCC1CCc2ccc3c(c21)CCO3 (configuration not stated)	inactive	active	inactive
O=c1[nH]c(=S)[nH]nc1O	inactive	inactive	inactive
